Data published in PubChem BioAssay AID1347428 (National Center for Advancing Translational Sciences (NCATS), 2020).
Out of some 91,000 compounds screened, about 290 (0.32%) were called active. The inconclusive results got no clear call from the source; some entries with a clear call stand among them for comparison. The call rests on the fitted dose curve; in most records, active means well fitted inhibition curve with a large enough effect; inconclusive means small, poorly fitted or top-dose-only effect; inactive means no such curve, though single readings can be large or run the other way. Potencies beside an inconclusive call are fits to weak or partial responses and may not hold up.

These compounds were tested against Single-stranded DNA cytosine deaminase (Homo sapiens) (UniProt Q9GZX7) (assay: Primary qHTS assay for inhibitors of Activation Induced Cytidine Deaminase (AID): AID signal). Details: AID deamination FRET fluorescence, UDG-coupled, 4 h; series mostly up to 115 µM.
Sequence of UniProt Q9GZX7 (Q9GZX7 whole entry, looked up): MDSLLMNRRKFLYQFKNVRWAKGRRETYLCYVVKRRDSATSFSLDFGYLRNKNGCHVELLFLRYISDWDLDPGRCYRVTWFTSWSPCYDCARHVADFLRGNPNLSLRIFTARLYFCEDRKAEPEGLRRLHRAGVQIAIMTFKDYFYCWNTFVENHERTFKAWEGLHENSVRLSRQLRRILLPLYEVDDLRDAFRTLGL
Further: nearly all actives have a fitted effect of over 25% in size.
Potency means the concentration at half of the fitted maximal effect; tags describe the fitted curve by direction and shape.

Structure (SMILES) | Potency
Cc1ccc(Cn2c(-n3nc(C)c(C)c3C)nc3c2c(=O)n(CC(N)=O)c(=O)n3C)cc1 | inactive
O=C(COc1cccc(Cl)c1)N1CCC(c2nc3ccccc3s2)CC1 | inactive
CCn1c(CNC(=O)C23CC4CC(CC(C4)C2)C3)nnc1SCC(=O)Nc1ccc(OC)cc1 | inactive
NC(=O)C1CCN(Cc2nc(N)c3ccccc3n2)CC1 | inactive
CCN(CC)C(=O)c1sc2c(c1C)c(=O)n(-c1ccc(C)c(C)c1)c(=O)n2Cc1cccc(Cl)c1 | inconclusive: 12.6 µM [inhibitor, full curve, poor fit]
Cc1ccc(NC(=O)/C=C/c2cccs2)cc1C | inactive
CCOc1ccc(CCNC(=O)c2noc(C)c2Cn2nc(C)cc2C)cc1OCC | inactive
CCc1ccccc1N(C)C(=O)c1nn(C)c2c1CSc1ccccc1-2 | inconclusive: 35.5 µM [inhibitor, partial curve, poor fit]
COc1ccc(Cn2ccc3nc(C)c(C(=O)N4CCN(c5ccccc5F)CC4)cc3c2=O)cc1 | inconclusive: 39.8 µM [inhibitor, full curve, poor fit]
Cc1ccccc1C1/C(=C(\O)c2ccccc2F)C(=O)C(=O)N1c1ccc(CC(=O)O)cc1 (configuration not stated) | inactive
CCCCc1ccc(NC(=O)CC2CCCCC2)cc1 | inactive
FC(F)(F)c1ccc(-c2noc(-c3ccccc3Br)n2)cc1 | inconclusive: 79.4 µM [inhibitor, partial curve, poor fit]
Cc1c(-c2ccccc2)oc2c(C(=O)N3CCN(Cc4ccccc4)CC3)cccc2c1=O | inconclusive: 79.4 µM [inhibitor, partial curve]
COc1ccc(OC)c(/C=C(\C#N)c2nc3ccccc3c(=O)[nH]2)c1 | active: 79.4 µM
O=C(c1cnc(N2CCCCC2)c2ccccc12)N1CCN(c2ccc(Cl)cc2)CC1 | inconclusive: 17.8 µM [inhibitor, full curve, poor fit]
CCc1nn(CC(=O)N2CCN(c3ccc(Cl)cc3)CC2)c(=O)c2cc3occc3n12 | inconclusive: 20 µM [inhibitor, full curve]
O=C(c1ccc2c(c1)N(Cc1ccc(F)cc1)C(=O)c1ccccc1S2(=O)=O)N1CCN(c2ccccn2)CC1 | inconclusive: 28.2 µM [inhibitor, partial curve, poor fit]
COc1ccccc1N1CCN(CCCNC(=O)c2cnn(-c3ccc(C)c(C)c3)c2C2CCN(C(=O)OC(C)(C)C)CC2)CC1 | active: 50.1 µM
Cc1ccc(NC(=O)C2CCCN(S(=O)(=O)c3c(C)n[nH]c3C)C2)cc1Cl (configuration not stated) | inactive
O=C1OC2OCCCC2C1Nc1ccc(I)cc1 (configuration not stated) | inactive
CCSc1ncc(Cl)c(C(=O)N(Cc2ccccc2)Cc2ccco2)n1 | inconclusive: 39.8 µM [inhibitor, partial curve, poor fit]
CCOc1ccc(C(=O)c2cn(Cc3ccccc3)c3c(F)cc(F)cc3c2=O)cc1 | inconclusive: 14.1 µM [inhibitor, partial curve, poor fit]
Cc1c(C(=O)Nc2ccc(F)c(F)c2)oc2ccc(S(=O)(=O)N3CCC4(CC3)OCCO4)cc12 | inactive

Structure (SMILES) | Potency
COc1ccccc1CNC(=O)CN(c1ccc(C)cc1)S(=O)(=O)c1c(C)noc1C | inconclusive: 89.1 µM [inhibitor, partial curve, poor fit]
O=C(Nc1ccc(F)cc1)Nc1ccc2snnc2c1 | inactive
CCc1cccc(NC(=O)CN(c2ccc(C)cc2)S(=O)(=O)c2cccs2)c1 | inconclusive: 44.7 µM [inhibitor, partial curve, poor fit]
COc1cccc(C(=O)NCCc2csc(-c3cccc(F)c3)n2)c1OC | inconclusive: 50.1 µM [inhibitor, partial curve, poor fit]
Cc1ccc(-c2noc(CSc3nnc(C4CC4)n3-c3ccccc3)n2)cc1 | inactive
O=C(c1cnc(N2CCCCC2)c2ccccc12)N1CCN(c2cccc(Cl)c2)CC1 | inconclusive: 31.6 µM [inhibitor, full curve]
CCc1nc2ccc(C(=O)NCc3cccc(Br)c3)cc2nc1CC | inconclusive: 50.1 µM [inhibitor, partial curve, poor fit]
CCOc1ccccc1C(=O)N(Cc1ccco1)Cc1ccccc1F | inconclusive: 56.2 µM [inhibitor, partial curve, poor fit]
Cc1cccc(NS(=O)(=O)c2nnc(NC(=O)c3cccc(C)c3)s2)c1 | inconclusive: 50.1 µM [inhibitor, partial curve, poor fit]
Cc1oc(-c2cccc(Cl)c2)nc1CSCC(=O)NCc1ccccc1Cl | inconclusive: 44.7 µM [inhibitor, partial curve, poor fit]
CCS(=O)(=O)c1ccccc1C(=O)N1CCN(c2nc3ccccc3s2)CC1 | inconclusive: 2.82 µM [inhibitor, full curve, poor fit]
Clc1cccc(CSc2ccc(-c3cccs3)nn2)c1 | inconclusive: 3.16 µM [inhibitor, full curve, poor fit]
CCOc1ccccc1CNC(=O)CCCN1C(=O)c2cccnc2Oc2ccc(Cl)cc21 | inconclusive: 70.8 µM [inhibitor, single point]
CCn1c(C)cc(/C=C(\C#N)c2ccc(Br)cc2)c1C | inactive
CCOC(=O)c1c(C)oc2nc(C)nc(N3CCN(c4ccc(OC)cc4)CC3)c12 | inconclusive: 44.7 µM [inhibitor, partial curve, poor fit]
CC(C)N(C)CC1CCN(C(=O)Nc2cccc(Cl)c2)CC1 | inactive
CCCCN(C)CC(O)Cn1cc(/C=C/C(=O)c2ccc(C)cc2)c2ccccc21 (configuration not stated) | inconclusive: 31.6 µM [inhibitor, full curve, poor fit]
CC(C)c1ccc(NC(=O)Nc2csc3c2CCCC3)cc1 | inconclusive: 31.6 µM [inhibitor, partial curve, poor fit]
CC(C)C(=O)Nc1cccc(C(=O)Nc2nnc(CC(C)(C)C)s2)c1 | inactive
Cc1ccc(NC(=O)c2c(C)oc3ccc(O)c(CN4CCCCCC4)c23)cc1 | inconclusive: 28.2 µM [inhibitor, partial curve, poor fit]
Cc1ccc(-n2ncc3c(N(CC(C)C)CC(C)C)ncnc32)c(C)c1 | inactive
O=C(COc1ccccc1[N+](=O)[O-])N1CCC(c2nc3ccccc3o2)CC1 | inconclusive: 100 µM [inhibitor, partial curve, poor fit]
O=C(O)c1cc(Nc2nc(-c3ccccc3)cs2)ccc1O | inconclusive: 89.1 µM [inhibitor, partial curve]

Structure (SMILES) | Potency
Cc1ccc(-c2nnc(Nc3ccc(OCC(N)=O)cc3)c3ccccc23)cc1S(=O)(=O)N(C)C | inconclusive: 50.1 µM [inhibitor, partial curve, poor fit]
CCCN(C(=O)COc1cc(=O)n(CC)c2ccccc12)c1ccc(C(C)C)cc1 | inconclusive: 35.5 µM [inhibitor, single point]
COc1cccc(Cn2c(SCC(=O)N(C)c3ccccc3)nc3ccccc32)c1 | inconclusive: 56.2 µM [inhibitor, partial curve, poor fit]
CN(C)CCCn1c(-c2ccc(COc3ccc(Br)cc3)o2)n[nH]c1=S | inactive
CCOC(=O)N1CCC(=C2c3ccc(Cl)cc3CCc3cccnc32)CC1 | inconclusive: 79.4 µM [inhibitor, partial curve, poor fit]
COc1ccc(N2CCN(C(=O)c3sc4nc5n(c(=O)c4c3C)CCC5)CC2)cc1 | inconclusive: 56.2 µM [inhibitor, partial curve, poor fit]
COc1ccc(NC(=O)Cc2ccc3c(c2)OCCO3)cn1 | inactive
CCc1nn2c(=O)cc(COC(=O)c3ccc(NC(=O)C4CCCCC4)cc3)nc2s1 | inactive
O=C(/C=C/c1cccc2c1OCCCO2)c1cccnc1 | inactive
Cc1cc(C(=O)OCc2cccnc2)c2ccccc2n1 | inactive
CCCCn1cc(S(=O)(=O)c2ccc(CC)cc2)c(=O)c2cc(F)c(N3CCOCC3)cc21 | inconclusive: 22.4 µM [inhibitor, full curve, poor fit]
CCOc1ccc(N(C(C)C(=O)NCCSc2ccc(C)cc2)S(C)(=O)=O)cc1 (configuration not stated) | inactive
Cn1cc(C(=O)NCCc2ccccc2)c(=O)c2cc(S(=O)(=O)N3CCCCCC3)ccc21 | inconclusive: 39.8 µM [inhibitor, single point]
C=CC[C@H]1CC=C[C@H](CC=C)[N+]1(C)C | inactive
COc1ccc(Cl)cc1NC(=O)CN1C(=O)COc2ccc(S(=O)(=O)NC3CCCC3)cc21 | inactive
Cc1nc2nc(SCC(=O)NCc3ccccc3Cl)nn2c(C)c1Cc1ccccc1 | inconclusive: 79.4 µM [inhibitor, partial curve, poor fit]
Cc1cc(SCC(=O)Nc2ccc(C(N)=O)cc2)nc2ccccc12 | inconclusive: 79.4 µM [inhibitor, partial curve, poor fit]
CN(Cc1ccccc1)C1CCN(Cc2ccccc2Cl)CC1 | inconclusive: 39.8 µM [inhibitor, partial curve, poor fit]
CC(C)C(NC(=O)c1n[nH]c(=O)c2ccccc12)c1ccccc1 (configuration not stated) | inactive
CC(C)c1ccc(NC(=O)Cn2c(=O)n(CCc3ccccc3)c(=O)c3ccccc32)cc1 | inconclusive: 89.1 µM [inhibitor, single point]
O=C(c1ccco1)c1cn(CCOc2ccc(F)cc2)c2ccccc12 | inconclusive: 28.2 µM [inhibitor, full curve, poor fit]
